Residue numbers refer to the chain shown, from its start.
What was measured:
[1] = target: T1, T cell receptor (TCR) Vγ9 (TRGV9) (human, UniProt Q99603 21-122); assay: cell-based or functional assay
T1 chain (looked up): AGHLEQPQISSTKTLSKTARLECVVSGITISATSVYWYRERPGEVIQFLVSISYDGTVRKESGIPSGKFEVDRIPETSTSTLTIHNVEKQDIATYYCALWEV

[2] = target: T2, T cell receptor (TCR) Vγ9 (TRGV9) (human, UniProt Q99603 21-122); assay: cell-based or functional assay; remark: listed apart in the source
T2 sequence (looked up): T1 chain (looked up)

[3] = target: T3, TCR gamma/delta constant region (TRGDC) (human, UniProt P0CF51 1-173; B7Z8K6 1-153); assay: cell-based or functional assay
T3 chain (looked up) 1: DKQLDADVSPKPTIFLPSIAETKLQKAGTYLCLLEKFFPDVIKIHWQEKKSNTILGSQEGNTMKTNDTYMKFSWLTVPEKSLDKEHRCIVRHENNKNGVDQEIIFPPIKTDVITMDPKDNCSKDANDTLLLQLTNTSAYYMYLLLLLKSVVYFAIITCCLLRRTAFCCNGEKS
T3 chain (looked up) 2: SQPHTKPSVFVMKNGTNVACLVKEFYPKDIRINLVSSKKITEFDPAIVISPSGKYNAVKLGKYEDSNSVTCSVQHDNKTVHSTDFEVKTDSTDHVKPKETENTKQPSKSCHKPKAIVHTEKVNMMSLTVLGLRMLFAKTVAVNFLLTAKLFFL

[4] = target: T4, γδ T cell receptor on human γδ T cells (human); assay: flow cytometry, dose-response binding at 37 C on human γδ T cells
T4 construct: also called AG000003021 (γδ T cells)
Experimental: (§1) Binding of antibodies to human γδ T cells or SKW cell lines expressing Vγ9/Vδ2, Vγ9/Vδ2 or Vγ5/Vδ2 was carried out by flow cytometry. Briefly, the cells were centrifuged at 300×g for 5 minutes and the pellet was resuspended in 34 ml fresh media (in RPMI+10% FBS). 50 μL of the cells were then plated (44K cells/well) into assay plates. Samples were incubated for one hour at 37° C. in tissue culture (TC) incubator followed by wash steps by adding 100 μl FACS staining buffer. Secondary detention antibodies (A647 conjugated anti-human IgG Fc specific antibody (2 μg/mL) along with AF488 anti mouse CD3, clone OKT3 at 1 ug/mL) were added at 50 μL/well to appropriate wells according to the plate map. After incubating for 60 minutes at 37° C. in the TC incubator, cells were again washed as described above. This is followed by resuspension in 20 μL/well running buffer containing 1:1000 dilution of Sytox blue dead cell stain and the plates were run on iQue Screener.
Gating and data analysis: Human anti-human Vγ9 antibody (VG9B2 mAb at 10 nM) was used to mark the gating of positive population. All cells were first gated for singlets on SCS-A vs. SCS-H dot plot, live/dead followed by CD3 positive population, and this subset of CD3 positive population was gated for Vγ9 positive binding using positive control mAb. Cells were also assessed for cell binding of control mAbs by RL1 (A647) Geomeans from the live cell population. Advanced metrics were used and normalization metrics were chosen to calculate fold over background wells containing secondary antibody alone (designated as ‘background’ within ForeCyt settings).

[5] = target: γδ T cell receptor on human γδ T cells (AG000003021) (human); assay: flow cytometry, DRC binding at 37°C on human γδ T cells
Experimental: as §1
(§2) Gating and data analysis: Human anti-human Vγ9 antibody (VG9B2 mAb at 10 nM) was used to mark the gating of positive population. […] Cells were also assessed for cell binding of control mAbs by RL1 (A647) Geomeans from the live cell population. […]

[6] = target: T5, γδ T cell receptor on human γδ T cells (human); assay: flow cytometry DRC binding 37 C, human γδ T cells
T5 construct: whole, on cells; Target is the γδ TCR on a mixed population of human γδ T cells; also called AG000003021 (γδ T cells)
Experimental: as §1, §2

B1: VG9B423 (antibody, human IgG1, kappa)
heavy: EVQLVESGGGLVKPGGSLRLSCSASGFTFSNYDMNWVRQAPGKGLEWVSSISSSSSYIYYADSVKGRFTISRDNAKNSLYLQMNSLRAEDTAVYHCARDVGVTTDYYYYGMDVWGQGTMVTVSS[human IgG1 constant region omitted here]
light: ETTLTQSPGTLSLSPGDRATLSCRASQSVASSYLAWYQQKPGQSPRLLIYGASSRATGIPDRFSGSGSGTDFTLTISRLEPEDFAVYYCQQYGSSPPYTFGQGTKVEIKRTVAAPSVFIFPPSDEQLKSGTASVVCLLNNFYPREAKVQWKVDNALQSGNSQESVTEQDSKDSTYSLSSTLTLSKADYEKHKVYACEVTHQGLSSPVTKSFNRGEC
In the case of B1, the “CD25+ (Vg9+ cells), flow staining” value [1] is reported as 40.3%, the “CD71+ (Vg9+ cells), flow staining” value [1] is reported as 98.9% and the “Granzyme B, Luminex (supernatant)” value [1] is reported as 3380. For the same binder, the “IFNγ, Luminex (supernatant)” value [1] was 1430, the “IL6, Luminex (supernatant)” value [1] was 590 and the “TNFα, Luminex (supernatant)” value [1] was 229. The “Vg9 T cell %, flow staining” value [1] was 13.9%.

B2: VG9B426 (antibody, human IgG1, kappa)
heavy: B1 heavy with E6Q
light: B1 light
For B2, the “CD25+ (Vg9+ cells), flow staining” value [2] was 36.5%, the “CD71+ (Vg9+ cells), flow staining” value [2] was 98.8% and the “Granzyme B, Luminex (supernatant)” value [2] was 4590. For the same binder, the “IFNγ, Luminex (supernatant)” value [2] was 2350, the “IL6, Luminex (supernatant)” value [2] was 621 and the “TNFα, Luminex (supernatant)” value [2] was 789. For the same binder, the “Vg9 T cell %, flow staining” value [2] was 7.6%.

B3: VG9B415 (antibody, human IgG1, kappa)
heavy: B1 heavy with M119T
light: B1 light with V106L
B3 was tested, and the “CD25+ (Vg9+ cells), flow staining” value [1] was 31.5%, the “CD71+ (Vg9+ cells), flow staining” value [1] was 96.9% and the “Granzyme B, Luminex (supernatant)” value [1] was 5160. The “IFNγ, Luminex (supernatant)” value [1] was 1210, the “IL6, Luminex (supernatant)” value [1] was 403 and the “TNFα, Luminex (supernatant)” value [1] was 193. The “Vg9 T cell %, flow staining” value [1] was 5.3%.

B4: VG9B399 (antibody, human IgG1, kappa)
heavy: B1 heavy
light: B1 light with E107D
For B4, the “CD25+ (Vg9+ cells), flow staining” value [3] was 36.8%, the “CD71+ (Vg9+ cells), flow staining” value [3] was 96.5% and the “Granzyme B; Luninex (supernatant)” value [3] was 8240. For the same binder, the “IFNγ; Luninex (supernatant)” value [3] was 2400, the “IL6; Luninex (supernatant)” value [3] was 511 and the “TNFα; Luninex (supernatant)” value [3] was 157. For the same binder, the “Vg9 T cell %, flow staining” value [3] was 7%.

B5: VG9B371 (antibody, human IgG1, kappa)
heavy: EVQLLESGGGLVKPGGSLRLSCAASRFTLSSYDMNWVRQAPGKGLEWVSSISSSSSYIYYADSVKGRFTISRDNAKNSLYLQMNSLRAEDTAVYYCARDRGVGGTDYYYYGLDVWGQGTTVTVSS[human IgG1 constant region omitted here]
light: [about 100 residues omitted here][about 100 residues omitted here]
B5 was tested, and the “CD25+ (Vg9+ cells), flow staining” value [3] was 42.3%, the “CD71+ (Vg9+ cells), flow staining” value [3] was 98.4% and the “Granzyme B; Luninex (supernatant)” value [3] was 7480. The “IFNγ; Luninex (supernatant)” value [3] was 4830, the “IL6; Luninex (supernatant)” value [3] was 1560 and the “TNFα; Luninex (supernatant)” value [3] was 4100. For the same binder, the “Vg9 T cell %, flow staining” value [3] was 8.2%.

B6: VG9B427 (antibody, human IgG1, kappa)
heavy: B1 heavy with E1Q, M119T
light: B1 light with T2I, T3V, L4M, K105R, V106L
notes: IgG1, kappa; also called antibody #26
With B6 the “Max. Activity” value [4] was 2730 fold over background.

B7: VG9B425 (antibody, human IgG1, kappa)
heavy: B1 heavy with V5L
light: B1 light
notes: IgG1, kappa; also called antibody #30
With B7 the “Max. Activity” value [4] was 2660 fold over background.

B8: VG9B426 (antibody, human IgG1, kappa)
heavy: B1 heavy with E6Q
light: B1 light
notes: IgG1, kappa
B8 was tested, and the “Max. Activity” value [5] was 3210 fold over background.

B9: VG9B399 (antibody, human IgG1, kappa)
heavy: B1 heavy
light: B1 light with E107D
notes: IgG1, kappa; specificity column: g/d constant
With B9 the “Max. Activity” value [6] was 2480 fold over background.

B10: VG9B415 (antibody, human IgG1, kappa)
heavy: B1 heavy with M119T
light: B1 light with V106L
notes: IgG1, kappa
With B10 the “Max. Activity” value [5] was 3080 fold over background.

B11: VG9B371 (antibody, human IgG1, kappa)
heavy: B5 heavy
light: [about 100 residues omitted here][about 100 residues omitted here]
notes: as for B9
In the case of B11, the “Max. Activity” value [6] is reported as 1970 fold over background.

B12: VG9B423 (antibody, human IgG1, kappa)
heavy: B1 heavy
light: B1 light
notes: IgG1, kappa; also called antibody #20
B12 was tested, and the “Max. Activity” value [4] was 2960 fold over background.

B13: VG9B424 (antibody, human IgG1, kappa)
heavy: B1 heavy
light: B1 light with V106L
notes: IgG1, kappa; also called antibody #25
With B13 the “Max. Activity” value [4] was 2780 fold over background.
